Laboratory results: patent US20130096282A1 (LOSTAM BIOPHARMACEUTICALS, published 2013)

Biological target: T1, flagellin type A of P. aeruginosa laboratory strain PAK (Pseudomonas aeruginosa, UniProt P21184 2-394)
T1 construct: whole, on cells; Tested on whole immobilized or formaldehyde-fixed bacteria (ELISA) and in blotted bacterial lysate (western blot)
T1 sequence: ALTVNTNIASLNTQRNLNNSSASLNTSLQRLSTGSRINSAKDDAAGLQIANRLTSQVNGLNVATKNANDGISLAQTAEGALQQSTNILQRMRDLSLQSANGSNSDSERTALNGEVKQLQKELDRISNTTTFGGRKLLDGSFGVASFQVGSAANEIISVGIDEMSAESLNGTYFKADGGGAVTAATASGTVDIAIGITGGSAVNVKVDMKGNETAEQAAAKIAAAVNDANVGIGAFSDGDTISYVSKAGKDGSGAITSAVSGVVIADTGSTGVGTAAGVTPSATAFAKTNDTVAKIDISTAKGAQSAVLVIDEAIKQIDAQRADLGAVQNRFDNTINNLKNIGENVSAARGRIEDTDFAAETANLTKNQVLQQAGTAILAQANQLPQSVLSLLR
Assay: ELISA on formaldehyde-fixed whole PAK bacteria

B1: monoclonal dual-specific anti-flagella type A and B antibody LST-009 (bispecific antibody)
chain 1: DVQLQESGPGLVKPSQSLSLPCSVTGYSITSGYYWNWIRQFPGNKLEWMGYIRYDGNNNYNPSLKNRISITHDTSKNQFFLKLNYVTTEDTATYYCARGLQFYFDSWGQGTTLTVSSGGGGSGGGGSGGGGSDIVMSQSPSSLAVSGGEKVTMSCKSSQSLLNGSYQKHTLAWYQQKPGQSPKLLIYWASTRESGVPDRFTGSGSGTDFTLTISSVKAEDLAVYYCQQYYSYPWTFGGGTKLEIKRPGSAGGSGGDS[human IgG1 Fc with T366Y (EU numbers) left out]
chain 2: DIVMTQSHIFMSTSVGDRVSITCKASQDVGSAVAWYQQKPGQSPKVLIYWTSTRHTGVPDRFAGSGSGTEFTLTISNVQSEDLADYFCQQYSSYPLTFGAGTKLELKRGGGSAAAEVMLVESGGGLVKPGGSLKLSCAASGFTFSTFTMSWVRQTPEKRLECVATINGGGGNTYYPDSVKGRFTISRDNAKNNLYLQMSSLRSEDTAFYFCSRLYGIYAMDYWGQGTSVTVSSPGSAGGSGGDS[human IgG1 Fc with Y407T (EU numbers) left out]
notes: Knobs-into-holes scFv-Fc heterodimer made in CHO cells; also called dual specific LST-009; heterodimeric LST-009 mAb
EC50: ~4 µg/mL
